Measurements published in PubChem BioAssay AID488969 (Vanderbilt High Throughput Screening Facility, 2010).
Whole data set: some 110,000 compounds, median “z-score” near -0.1, cut for the highest 2% near 2. This is one part of the list. Activity calls are given as the source filed them.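 Rule for the calls: active = z-score in the third read window above 3 or below -3; inactive = the rest.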

biological target: Metabotropic glutamate receptor 8 (Rattus norvegicus) (UniProt P70579); experiment: mGluR8 Gi/Go-coupled signaling modulation – cell-based, rat, thallium flux, HTS, primary screen (AID 488969); conditions: HEK293 rat mGluR8, GIRK (G protein-gated inwardly rectifying potassium channel) thallium flux, FluoZin2; at 10 µM; stronger effect = higher value; submaximal glutamate (EC20) added with thallium
Chain of UniProt P70579 (P70579 whole entry, looked up): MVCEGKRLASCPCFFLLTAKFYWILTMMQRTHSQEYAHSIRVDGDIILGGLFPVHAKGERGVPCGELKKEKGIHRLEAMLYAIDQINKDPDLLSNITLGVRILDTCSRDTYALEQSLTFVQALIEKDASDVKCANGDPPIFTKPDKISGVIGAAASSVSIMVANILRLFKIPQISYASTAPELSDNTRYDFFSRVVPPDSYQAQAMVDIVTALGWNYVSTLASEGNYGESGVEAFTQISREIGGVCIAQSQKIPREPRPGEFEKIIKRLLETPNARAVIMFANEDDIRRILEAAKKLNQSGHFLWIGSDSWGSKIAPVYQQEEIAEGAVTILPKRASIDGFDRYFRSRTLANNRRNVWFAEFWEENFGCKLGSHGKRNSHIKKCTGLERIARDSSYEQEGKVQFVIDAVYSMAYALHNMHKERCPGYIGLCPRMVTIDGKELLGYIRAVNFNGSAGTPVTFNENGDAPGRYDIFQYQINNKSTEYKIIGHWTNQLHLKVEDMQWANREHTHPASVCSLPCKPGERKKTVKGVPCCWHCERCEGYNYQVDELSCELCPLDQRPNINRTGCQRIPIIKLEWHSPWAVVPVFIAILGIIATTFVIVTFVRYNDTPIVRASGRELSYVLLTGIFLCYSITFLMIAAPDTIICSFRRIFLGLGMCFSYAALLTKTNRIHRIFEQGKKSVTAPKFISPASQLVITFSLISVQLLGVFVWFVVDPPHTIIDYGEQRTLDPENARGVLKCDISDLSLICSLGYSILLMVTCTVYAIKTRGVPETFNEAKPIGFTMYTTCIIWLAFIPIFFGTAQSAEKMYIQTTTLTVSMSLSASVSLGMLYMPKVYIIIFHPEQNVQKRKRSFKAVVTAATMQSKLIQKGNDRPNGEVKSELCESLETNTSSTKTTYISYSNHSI

Row | Compound | z-score
1 | O=C(CSc1nc2ccccc2c(=O)n1CCCO)N1CCc2ccccc21 | -0.17
2 | CCN(CC)S(=O)(=O)c1ccc(NC(=O)C(C)N(c2ccccc2)S(C)(=O)=O)cc1 (centres undefined) | -0.142
3 | CCCNC(=O)COC(=O)c1[nH]c(C)c(C(=O)OCC)c1C | -0.279
4 | O=C(NC(Cc1ccccc1)C(=O)O)/C(=C/c1ccccc1)NC(=O)c1ccccc1 (centres undefined) | -0.249
5 | CC1(C)Nc2ccccc2N(CC(=O)N2CCCCC2)C1=O | 0.972
6 | Cc1cc(-c2ccco2)n(CC(=O)NCc2ccccc2)n1 | 0.232
7 | Cc1cc(C)c(C)c(S(=O)(=O)N2CCN(C(=O)c3cc(=O)[nH]c4ccccc34)CC2)c1C | -0.942
8 | Cc1c(NC(=O)C(Sc2ccccc2)c2ccccc2)cccc1[N+](=O)[O-] (centres undefined) | 0.0967
9 | CC(=O)c1c[nH]c2ccc(C)cc2c1=O | -0.303
10 | COc1ccccc1NC(=O)CSc1nnc(CNC(=O)c2ccco2)o1 | 1.4
11 | Cc1nnc(SCC(=O)Nc2sc3c(c2C(=O)c2ccccc2)CCCC3)s1 | -0.931
12 | COc1cccc2c1OC1(C)CC2NC(=O)N1Cc1ccccc1 (centres undefined) | -0.315
13 | CCOC(=O)c1cc2nc(-c3ccco3)cc(C(F)(F)F)n2n1 | -1.72
14 | Cc1c(Cl)c([N+](=O)[O-])nn1Cc1ccc(C(=O)Nc2ccc(Cl)cn2)o1 | -0.27
15 | Cc1[nH]nc2c1C1(CCOCC1)C(C#N)=C(N)O2 | -0.0698
16 | S=C(Nc1cccc(Cl)c1)NC1CC2CCCC(C1)N2C1CCCC1 (centres undefined) | 0.659
17 | CN(c1cccc(NC(=O)CCSc2ccccc2)c1)S(C)(=O)=O | -0.245
18 | COc1ccc(C(c2sc3ncnn3c2O)N2CC(C)OC(C)C2)cc1OC (centres undefined) | -0.138
19 | CCCNC(=O)CN(c1ccc(F)c(Cl)c1)S(C)(=O)=O | -0.357
20 | Cn1cnnc1SCc1cccc(Br)c1 | 0.349
21 | CC(/C=C1\SC(=S)N(NC(=O)c2ccc(C)cc2)C1=O)=C\c1ccccc1 | -0.0875
22 | Cc1onc(-c2ccccc2Cl)c1C(=O)Oc1cc(N)n(S(=O)(=O)c2ccc(F)cc2)n1 | -1.95
23 | CCOC(=O)C1CCN(C(=O)c2sc3nc(C)nc(N4CCC(C)CC4)c3c2C)CC1 | -0.881

Row | Compound | z-score
24 | COc1cc(C(=O)OCC(=O)Nc2cc(C)on2)cc(OC)c1OC | -0.0426
25 | COc1ccc2nc(CC(C)(C)CC(=O)O)c[n+]([O-])c2c1 | -0.136
26 | Cc1ccc(NCC(=O)N/N=C\C(Br)=C\c2ccccc2)cc1 | -0.852
27 | Cc1ccsc1C1NC(=O)c2c(sc3c2CCN(C)C3)N1 (centres undefined) | -0.443
28 | C/C(=N\NC(=O)Cc1ccccc1)c1cccs1 | -0.219
29 | CC(C)(C)c1cc(Cc2ccccc2)[nH]n1 | -0.13
30 | Cn1c(C(=O)OC(C(=O)NC2CCCCC2)c2cccnc2)cc2sccc21 (centres undefined) | -0.109
31 | COc1ccc(/C=C2\N=C(SC)SC2=O)cc1OC | -0.325
32 | Cc1c(C#N)c2ncn(Cc3ccccn3)c(=O)c2n1-c1ccccc1 | -0.89
33 | Cn1c(=S)[nH]c2ccccc21 | 0.0514
34 | O=C1CCN(N=Nc2cccc(Cl)c2)N1 | 0.605
35 | COc1ccc(-c2csc(/C(C#N)=C/Nc3ccc4c(c3)OCCO4)n2)cc1 | -0.607
36 | C=CCNC(=O)c1ccccc1Cl | -0.0738
37 | CCCOc1ccc(-c2nc(C#N)c(NCCCn3ccnc3)o2)cc1 | 0.0152
38 | COc1ccc(NC(C)=O)cc1NC(C)C(=O)Nc1cccc2ccccc12 (centres undefined) | 0.181
39 | CCn1c2ccccc2c2nnc(SCC(=O)c3ccccc3)nc21 | -0.432
40 | CC(=O)Nc1cccc(C(=O)/C=C/c2cccs2)c1 | 0.574
41 | CC(C)c1nc(SCC(=O)N2CCCc3ccccc32)c2c(=O)n(C)c(=O)n(C)c2n1 | 0.961
42 | O=C(Cc1ccccc1Cl)Nc1cccc(S(=O)(=O)N2CCOCC2)c1 | -0.174
43 | CC(=O)c1ccc(N2CCN(C(=S)Nc3cccc(Cl)c3)CC2)cc1 | -0.152
44 | CC(=O)c1ccc(NS(=O)(=O)c2ccc(CC(C)C)cc2)cc1 | -0.316
45 | Cc1nnc(SCC(=O)Nc2sccc2C(N)=O)n1Cc1ccccc1 | -0.51
46 | O=C(O)C1CCCCC1C(=O)NCCCN1CCOCC1 (centres undefined) | 0.0352

Row | Compound | z-score
47 | COc1cccc(Nc2ccc(C(=O)O)cc2[N+](=O)[O-])c1 | 0.594
48 | Cc1ccccc1Oc1cccc(C(=O)/C(C#N)=C/N(C)C)c1 | 0.0388
49 | N#CCSCC(=O)Nc1ccc(Br)cc1 | -0.0912
50 | COc1ccc(N(CC(=O)NCCSC(C)(C)C)S(C)(=O)=O)c(OC)c1 | 0.534
51 | O=C1/C(=C\c2cccs2)N=C(c2cccs2)N1Nc1ccccc1 | 0.00186
52 | Oc1ccccc1-c1nnc(COc2ccccc2)o1 | -0.0157
53 | CC(=O)c1cccc(NC(=O)COc2nsnc2N2CCOCC2)c1 | -0.119
54 | Cc1cccc(C(=O)Oc2ccccc2-c2nnco2)c1 | -0.546
55 | CC(=O)N1CCc2cc(S(=O)(=O)NC(C(=O)NCc3ccccc3)C(C)C)ccc21 (centres undefined) | 1.38
56 | CN1/C(=C\C(=O)CN2C(=O)NC3(CCCCCC3)C2=O)C(C)(C)c2ccccc21 | 0.196
57 | O=C(Cc1ccccc1)N1CCCC(c2nc(-c3cccs3)no2)C1 (centres undefined) | -0.856
58 | O=C1CC(c2ccc(Cl)cc2)n2nc(NS(=O)(=O)c3ccc(F)cc3)nc2N1 (centres undefined) | 0.11
59 | COC(=O)CNC(=O)CN1C(=O)N(c2ccc(Cl)cc2)C(N(O)C(=O)Nc2ccc(Cl)cc2)C1(C)C (centres undefined) | 0.0314
60 | CON/C=C(\C=Nc1ccc(Cl)cc1Cl)c1ncc(C(F)(F)F)cc1Cl | -0.248
61 | COc1ccccc1NC(=O)CCN1CCN(Cc2ccccc2)CC1 | -0.174
62 | O=C(NCc1ccccc1)Nc1cccn(Cc2ccccc2F)c1=O | -0.0615
63 | Clc1ccc(OCCN2CCCCC2)c(Cl)c1 | 0.502
64 | CC(C)n1c(C(=O)OCC(=O)NCc2ccc3c(c2)OCO3)cc2sccc21 | -0.44
65 | CC(=O)c1ccc(NC(=O)c2noc3c2CCCCC3)cc1 | -0.238
66 | Cc1sc(-c2ccccn2)nc1OC(=O)c1cccc(Cl)c1Cl | -0.206
67 | CCn1c(N)c(C(=O)NCc2ccc3c(c2)OCO3)sc1=S | 0.155
68 | O=C(NCc1cccs1)c1cc(S(=O)(=O)N2CCCCC2)ccc1Cl | -0.0516
69 | Cc1cc(C)cc(Oc2ccc(N)cc2)c1 | -0.0297

Row | Compound | z-score
70 | Cn1c(=O)c2c(nc(CN3CCOCC3)n2CC(=O)c2ccccc2)n(C)c1=O | -0.336
71 | Cc1cc(/C=C2/C(=O)NN(c3ccccc3)C2=O)c(C)n1-c1ccc(O)cc1 | -0.505
72 | CC1CCN(C(=O)CSc2nc3ccccc3s2)CC1 | -0.0843
73 | Cc1ccccc1NC(=O)NCCc1nc2ccccc2[nH]1 | -0.0805
74 | CN(C)/N=C/C=C1\CC/C(=C\c2ccc(Br)cc2)C1=O | -0.096
75 | CCOC(=O)c1c(NC(=O)COc2cccc3c2CCN(C)C3=O)sc2c1CCC2 | -0.448
76 | CCOC(=O)Cc1c(C)nc2c(-c3ccccc3)c(C)nn2c1C | -1.04
77 | O=S1(=O)N=C(Nc2ccc(N3CCOCC3)cc2)c2ccccc21 | -0.076
78 | Cn1ncc(Cl)c1C(=O)Nc1cccnc1 | -0.143
79 | O=C(Nc1ccc2c(c1)CCC2)c1cc(S(=O)(=O)N2CCN(c3ccccc3)CC2)ccc1Cl | 0.424
80 | CCOC(=O)c1c(C)n(CCO)c2ccc(O)cc12 | -0.314
81 | CCCN(/C=N/c1sc2c(c1C#N)CCCCC2)CCC | -0.155
82 | CCOCCCn1cnc2c([nH]c3cc(OC)ccc32)c1=O | 1.01
83 | O=C(/C=C/c1cccc(Cl)c1)Nn1c(-c2cccs2)nc2ccccc2c1=O | -0.649
84 | O=C1N/C(=N\N=C\c2cccs2)SC1Cc1ccc(Cl)cc1Cl (centres undefined) | 0.000784
85 | Cn1c(=O)c2c(ncn2CC(=O)N2CCN(c3ccccc3F)CC2)n(C)c1=O | 0.213
86 | CC(/C=N/NC(=O)c1cc(-c2ccc(C)o2)[nH]n1)=C\c1ccccc1 | -0.433
87 | Cc1cc2cc(CNC(=O)NC3CCCCC3)ccc2[nH]1 | -1.13
88 | O=C(NCC1CCCO1)Nc1ccc(Cl)cc1 (centres undefined) | 1.33
89 | Cn1c(CSCc2ccc(Cl)c(Cl)c2)n[nH]c1=S | -0.0279
90 | S=C(NCCc1ccccc1)N/N=C/c1cccc(Cl)c1Cl | 2.63
91 | O=C(COC(=O)C1CC(=O)N(Cc2ccccc2)C1)c1ccc(Br)cc1 (centres undefined) | -0.566
92 | COc1nccnc1NS(=O)(=O)c1ccc(NC(=S)NC(=O)c2ccc(F)c(F)c2)cc1 | -0.232

Row | Compound | z-score
93 | O=C(Cc1ccccc1)NCCSCc1ccco1 | -0.725
94 | O=C1OC2(CCCCC2)OC(=O)C1=CNc1nc2ccccc2s1 | active: 8.02
95 | COc1cc(NC(=O)c2ccco2)c(C(=O)OCC(=O)c2c[nH]c3ccccc23)cc1OC | -0.154
96 | CCOC(=O)C1C(=O)C=C(c2cccs2)CC1c1ccccc1C (centres undefined) | -0.107
97 | Cc1ccc(Cl)cc1NC(=O)C(NS(=O)(=O)c1cccs1)c1ccccc1 (centres undefined) | -0.17
98 | Cc1cc(N2CCCCC2)ccc1[N+](=O)[O-] | -0.179
99 | C/C(CC1CC(C)OC1=O)=N\NC(N)=S (centres undefined) | -2.66
100 | Cc1cccc2c(SCC(=O)NCC3CCCO3)nc(-c3ccc(F)cc3)nc12 (centres undefined) | 0.182
101 | CCOC(=O)c1cnc(SC)nc1Sc1cc(Cl)ccc1Cl | -0.264
102 | O=C(Nc1nc2ccc(S(=O)(=O)N3CCCC3)cc2s1)c1cccs1 | -0.222
103 | O=C(NCc1cccc(C(F)(F)F)c1)c1cc(Cl)ccc1Cl | -0.401
104 | CCN(CC)c1ccc(/C=N/NS(=O)(=O)c2cccc([N+](=O)[O-])c2)cc1 | 0.533
105 | COc1ccc(C(CC(=O)Nc2nccs2)n2cccc2)cc1 (centres undefined) | -0.82
106 | CN(C)CCNC(=O)c1ccc(COc2ccc(Cl)cc2Cl)cc1 | -0.247
107 | O=C(CN1CCCCCC1)N/N=C/c1cccs1 | -0.0704
108 | NC(=O)c1c(N)sc2c1CCCCC2 | 0.451
109 | N/C(COc1ccccc1)=N\NC(=O)c1cccnc1Oc1ccccc1 | -0.277
110 | O=c1c2ccccc2cnn1-c1ccc2ccccc2c1 | -0.124
111 | CC1(C)OC(=O)C(=NNc2ccc(Cl)cc2)C(=O)O1 | -0.142
112 | CC(C)Cc1nnc(NC(=O)Cc2ccc([N+](=O)[O-])cc2)s1 | -0.0415
113 | O=C(CN(C1CCCCC1)S(=O)(=O)c1ccc(Cl)cc1)NCc1ccncc1 | 0.589
114 | Clc1cccc(Oc2cnns2)c1Cl | -0.207
